Data: PubChem BioAssay AID1347165 (National Center for Advancing Translational Sciences (NCATS), 2019)
Hit rate of the full screen: of about 220,000 compounds, about 5,700 (2.6%) were called active. The inconclusive results got no clear call from the source; some entries with a clear call stand among them for comparison. The call rests on the fitted dose curve; in most records, active means well fitted inhibition curve with a large enough effect; inconclusive means small, poorly fitted or top-dose-only effect; inactive means no such curve, though single readings can be large or run the other way. Potencies beside an inconclusive call are fits to weak or partial responses and may not hold up.
Further: nearly all actives have a fitted effect of over 70% in size.
Potency means the concentration at half of the fitted maximal effect; tags describe the fitted curve by direction and shape.
Wherever activity change, negative = inhibition is given: 0% is about no effect.

Each compound was assayed against Lysine-specific demethylase 5B (Homo sapiens) (UniProt Q9UGL1) (assay: Primary screen for KDM5B Histone Demethylases FDH-coupled qHTS). Conditions: FDH-coupled NADH fluorescence (FDH is formaldehyde dehydrogenase); activity change, negative = inhibition: at 57.7 µM (top of the series) unless noted.
UniProt Q9UGL1, sequence (Q9UGL1 whole entry, looked up): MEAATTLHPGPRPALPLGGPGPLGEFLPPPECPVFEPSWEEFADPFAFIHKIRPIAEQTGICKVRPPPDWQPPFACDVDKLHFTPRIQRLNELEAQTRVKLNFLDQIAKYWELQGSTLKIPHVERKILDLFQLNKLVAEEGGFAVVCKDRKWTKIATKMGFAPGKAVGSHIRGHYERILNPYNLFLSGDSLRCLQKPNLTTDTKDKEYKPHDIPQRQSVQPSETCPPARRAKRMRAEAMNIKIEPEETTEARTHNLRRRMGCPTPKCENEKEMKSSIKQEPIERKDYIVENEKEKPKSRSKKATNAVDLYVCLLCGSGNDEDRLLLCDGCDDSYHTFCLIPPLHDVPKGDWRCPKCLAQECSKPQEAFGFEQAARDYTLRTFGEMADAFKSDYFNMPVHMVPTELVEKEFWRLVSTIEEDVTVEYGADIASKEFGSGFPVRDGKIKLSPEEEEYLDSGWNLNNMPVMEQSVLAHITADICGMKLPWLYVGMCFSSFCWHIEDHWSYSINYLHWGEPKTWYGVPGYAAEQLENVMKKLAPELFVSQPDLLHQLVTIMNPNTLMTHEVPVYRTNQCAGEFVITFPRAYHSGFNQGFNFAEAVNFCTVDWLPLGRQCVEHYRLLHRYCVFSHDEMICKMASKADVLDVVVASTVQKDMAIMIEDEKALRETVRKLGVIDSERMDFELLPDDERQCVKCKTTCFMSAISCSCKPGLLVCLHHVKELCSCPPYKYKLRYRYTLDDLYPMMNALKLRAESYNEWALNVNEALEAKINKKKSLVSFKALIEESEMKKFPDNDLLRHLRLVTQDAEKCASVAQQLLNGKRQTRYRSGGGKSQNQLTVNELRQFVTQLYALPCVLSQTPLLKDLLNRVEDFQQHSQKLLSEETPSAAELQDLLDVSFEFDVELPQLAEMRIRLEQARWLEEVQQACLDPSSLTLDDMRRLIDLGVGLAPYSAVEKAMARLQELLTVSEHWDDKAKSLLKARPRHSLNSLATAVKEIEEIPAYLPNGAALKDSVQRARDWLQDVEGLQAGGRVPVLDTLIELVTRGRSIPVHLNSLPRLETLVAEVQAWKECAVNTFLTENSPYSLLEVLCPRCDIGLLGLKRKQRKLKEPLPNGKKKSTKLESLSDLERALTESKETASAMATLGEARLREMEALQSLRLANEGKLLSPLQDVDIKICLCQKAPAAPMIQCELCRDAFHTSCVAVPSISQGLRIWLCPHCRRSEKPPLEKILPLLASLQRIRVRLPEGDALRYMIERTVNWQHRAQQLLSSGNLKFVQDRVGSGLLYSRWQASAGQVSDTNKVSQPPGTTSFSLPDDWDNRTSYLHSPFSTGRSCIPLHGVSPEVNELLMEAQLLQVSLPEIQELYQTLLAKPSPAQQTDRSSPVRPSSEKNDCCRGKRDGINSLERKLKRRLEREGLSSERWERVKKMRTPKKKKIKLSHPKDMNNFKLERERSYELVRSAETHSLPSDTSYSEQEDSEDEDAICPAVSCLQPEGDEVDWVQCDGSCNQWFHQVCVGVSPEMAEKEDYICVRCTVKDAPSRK
Procedure, shortened: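 Measured: NADH fluorescence change, 30 min, RT. System: KDM5BΔAP 200 nM final, H3K4me3 peptide, α-KG, Fe(II), ascorbate, NAD⁺ plus FDH, pH 7.5 HEPES. Compounds: titrated, 10 min pre-incubation with enzyme.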
For Fc1ccc(/C=N/Nc2cccc(Cl)c2)cc1F, the “activity change, negative = inhibition” value was inactive: -19.3%. For Cc1ccc(-c2cc(C(=O)NCc3ccncc3)c3ccccc3n2)c(C)c1, the Potency was inconclusive: 25.1 µM [inhibitor, partial curve, poor fit]. Cc1ccc(CNC(=O)c2ccc3c(c2)NC(=O)C(CS(=O)(=O)Cc2ccc(F)cc2)N3)cc1 (stereo not drawn) was tested, and the Potency was inconclusive: 5.62 µM [inhibitor, partial curve, poor fit]. CN(C)c1cccc(C(=O)Nc2nc3ccc(S(=O)(=O)NC(C)(C)C)cc3s2)c1 was tested, and the Potency was inconclusive: 25.1 µM [inhibitor, single point]. Nc1nccnc1C(=O)NCCSCc1ccsc1 was tested, and the Potency was inconclusive: 25.1 µM [inhibitor, partial curve, poor fit]. In the case of CN1CCC(Nc2nccc(C3(c4ccccc4Cl)CCNCC3)n2)CC1, the “activity change, negative = inhibition” value is reported as inactive: -29.1%. COc1ccccc1C(=O)Nc1c(C(=O)N2CCN(c3ccccc3F)CC2)oc2ccccc12 was tested, and the Potency was inconclusive: 28.2 µM [inhibitor, partial curve, poor fit]. In the case of COc1cc(/C=C(\C#N)c2nc3ccccc3[nH]2)ccc1O, the Potency is reported as inconclusive: 39.8 µM [inhibitor, partial curve, poor fit]. O=C(NCc1nnc2n1C(C(=O)NCc1ccncc1)CC2)c1ccccc1 (stereo not drawn) was tested, and the “activity change, negative = inhibition” value was inactive: 23.3% [at 115 µM]. For CNC(=O)c1cccc(CNC(=O)C(C)(C)NC(=O)OC(C)(C)C)c1, the “activity change, negative = inhibition” value was inactive: 20.1%. In the case of Cc1nc(/C=C/C(=O)NC(C)C23CC4CC(CC(C4)C2)C3)cs1 (stereo not drawn), the “activity change, negative = inhibition” value is reported as inactive: 23.3%. COc1cc2c(cc1NC(=O)COc1ccc(Br)cc1C)oc1ccccc12 was tested, and the Potency was inconclusive: 44.7 µM [inhibitor, single point]. With O=S(=O)(c1ccc(Br)cc1)c1nc(-c2cccs2)oc1SCc1ccc(F)cc1 the Potency was inconclusive: 15.8 µM [inhibitor, partial curve, poor fit]. COc1ccc(CN2C[C@H](O)C[C@H]2c2nc(Cc3ccc(F)cc3Cl)no2)c2ccccc12 was tested, and the Potency was inconclusive: 28.2 µM [inhibitor, partial curve, poor fit]. CCOc1ccc(Nc2c3ccccc3nc3ccccc23)cc1 was tested, and the Potency was inconclusive: 39.8 µM [inhibitor, partial curve, poor fit]. In the case of COc1cc2oc(=O)cc(C)c2cc1CCC(=O)O, the Potency is reported as inconclusive: 25.1 µM [inhibitor, partial curve, poor fit]. In the case of CCOC(=O)N1CCC(NC(=O)c2cnn3c(C)c(Cc4cc(C)ccc4C)c(C)nc23)CC1, the “activity change, negative = inhibition” value is reported as inactive: 10.3%. CCOC(=O)C1=C(C)N=C2SC=C(CC(=O)N3CCC(C)CC3)N2C1c1ccccc1F (stereo not drawn) was tested, and the Potency was inconclusive: 20 µM [inhibitor, partial curve]. In the case of CN(C)C(=O)c1ccc2c(c1)n(Cc1ccc(F)cc1)c(=O)c1ccnn12, the Potency is reported as active: 28.2 µM. For Cc1ccccc1CN1C(=O)c2ccccc2S(=O)c2ccc(C(=O)NCc3ccco3)cc21 (stereo not drawn), the Potency was inconclusive: 35.5 µM [inhibitor, single point]. In the case of Cc1[nH]c2ccc(C(=O)Nc3ccc(F)cc3)cc2c1C, the Potency is reported as inconclusive: 8.91 µM [inhibitor, partial curve, poor fit]. With CS(=O)(=O)CCC(NS(=O)(=O)/C=C/c1ccccc1)C(=O)O (stereo not drawn) the “activity change, negative = inhibition” value was inactive: 0.569%. O=C(c1n[nH]c2c1CCCC2)N1CCC2(CC1)NC(=O)N(c1ccccc1)N2 was tested, and the Potency was inconclusive: 14.1 µM [inhibitor, partial curve, poor fit]. For CCN(C(=O)CCS(=O)(=O)c1ccc2c(c1)oc(=O)n2C)c1ccc(OC)cc1, the activity change, negative = inhibition was inconclusive: -74.1% [inhibitor] [at 11.5 µM]. In the case of COc1cccc(CCC(=O)NCc2nnc3ccc(-c4ccccc4)nn23)c1, the “activity change, negative = inhibition” value is reported as inactive: -20.6%. With CCn1ccc(C(=O)N2CCC3(CC2)c2[nH]c4ccc(OC)cc4c2CCN3C)n1 the Potency was active: 22.4 µM. For c1ccc(COc2ccc(CN3CCN(C4CCNC4)CC3)cc2)cc1 (stereo not drawn), the Potency was inconclusive: 15.8 µM [inhibitor, partial curve]. Cc1oc(-c2ccccc2F)nc1CS(=O)(=O)CC(=O)N1CCN(c2ccc(Cl)cc2)CC1 was tested, and the Potency was inconclusive: 14.1 µM [inhibitor, partial curve, poor fit]. CC1(C)CCCC(C)(C#CCN(Cc2ccccc2)Cc2ccccc2)O1 (stereo not drawn) was tested, and the “activity change, negative = inhibition” value was inactive: 1.13%. COc1ccc(Nc2cc3c(cn2)CN(CCc2ccccc2)CCN3)cn1 was tested, and the Potency was inconclusive: 39.8 µM [inhibitor, partial curve, poor fit]. For COc1ccc(C2Cn3cnc(-c4nc(-c5cccs5)no4)c3CO2)cc1 (stereo not drawn), the “activity change, negative = inhibition” value was inactive: -12%. COc1ccc(CCn2c(=O)c3ccccc3n(CC(=O)Nc3cccc(C)c3)c2=O)cc1OC was tested, and the “activity change, negative = inhibition” value was inactive: -22%. In the case of Cc1ccc(C2=NC3(CCN(C(=O)c4ccc(C#N)cc4)CC3)ON2)cc1, the “activity change, negative = inhibition” value is reported as inactive: -5.83%. For O=[N+]([O-])c1ccc(N/N=C/c2ccc(Br)cc2)cc1, the “activity change, negative = inhibition” value was inactive: -11.9%. In the case of C=C(C)COc1cccc(C(=O)Nc2ccccc2)c1, the “activity change, negative = inhibition” value is reported as inactive: -14.5%. For O=C(c1cccs1)N1CCC(Cc2nc(-c3ccncc3)n[nH]2)CC1, the Potency was inconclusive: 14.1 µM [inhibitor, partial curve]. For COc1cccc(-n2c(=O)c3cc(OC)c(OC)cc3n(CC(=O)Nc3ccccc3)c2=O)c1, the Potency was inconclusive: 28.2 µM [inhibitor, partial curve, poor fit]. In the case of O=C(Cc1ccc(Cl)cc1)N1CCN(c2nnc3ccccn23)CC1, the Potency is reported as active: 25.1 µM. In the case of Cc1cccc(C(=O)NNC(=S)NC(=O)/C=C/c2ccccc2)c1, the Potency is reported as inconclusive: 25.1 µM [inhibitor, single point]. CCc1noc(-c2ccn3c(CNC(=O)c4nccc5ccccc45)nnc3c2)n1 was tested, and the Potency was inconclusive: 8.91 µM [inhibitor, full curve, poor fit]. With COCCN1CC(CO)C2(CCN(C(=O)Cc3ccccc3C)CC2)C1 (stereo not drawn) the Potency was inconclusive: 20 µM [inhibitor, partial curve, poor fit]. In the case of CCO[C@H]1CN(C2CCN(CCc3ccccc3)CC2)C[C@@H]1O, the Potency is reported as inconclusive: 20 µM [inhibitor, partial curve, poor fit]. CC(CN1C(C)CCCC1C)OC(=O)c1ccccc1Br (stereo not drawn) was tested, and the Potency was inconclusive: 39.8 µM [inhibitor, single point].
